# According to a collection of fitness landscapes (doi:10.1016/j.celrep.2020.107928):
# Whole data set: some 81,000 sequences, median “one-hybrid fitness for binding parS DNA” near -0.17, cut for the highest 2% near 0.51. The list shows a part of the results.
# B1: Caulobacter ParB omega fusion; a variant is named by its letters at X, in order, B8GW30 (parent)
# chain: MESVVVGEPGMSEGRRGLGRGLSALLGEVDAAPAQAPGEQLGGSREAPIEILQRNPDQPRRTFREEDLEDLSNSIREKGVLQPILVRPSPDTAGEYQIVAGERAWRAAQRAGLKTVPIMVRELDDLAVLEIGIIENVQRADLNVLEEALSYKVLMEKFERTQENIAQTIGKSXSHVANXMRLLXLPDEVQSYLVSGELTAXHARAIAAAADPVALAKQIIEGGLSVRETEALARKAPNLSAGKSKGGRPPRVKDTDTQALESDLSSVLGLDVSIDHRGSTGTLTITYATLEQLDDLCNRLTRGI
# Variants of: B1
# Experiment: one-hybrid fitness for binding parS DNA (scaled: cognate 1, non-cognate 0); higher = stronger binding
# Conditions: with parS DNA site
# How it was run: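 Pre- and post-selection plasmids were Illumina-sequenced, three replicate libraries were pooled, and any variant with under 10 reads was removed. The libraries were Caulobacter ParB with four specificity codons randomised, selected in E. coli USO through a HIS3 reporter whose site is 19 bp from the promoter. Cells grew 48 hours at 37°C on M9 without histidine, with 0.1 mM IPTG and 5 mM 3-AT. Fitness is the log change in variant-to-wild-type read ratio, rescaled against cognate and non-cognate.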
row,Variant,one-hybrid fitness for binding parS DNA
1,SAQR,≤ 0.2
2,FDGW,≤ 0.2
3,FFHT,≤ 0.2
4,FKLG,≤ 0.2
5,CGYV,≤ 0.2
6,CVGN,≤ 0.2
7,PNCQ,≤ 0.2
8,KRYM,≤ 0.2
9,MSHL,≤ 0.2
10,PRVK,≤ 0.2
11,SLWR,≤ 0.2
12,TCTK,≤ 0.2
13,IVEG,≤ 0.2
14,LKFV,≤ 0.2
15,HMCT,≤ 0.2
16,SLRN,≤ 0.2
17,CYNS,≤ 0.2
18,HDCW,≤ 0.2
19,ALNA,≤ 0.2
20,SVEC,≤ 0.2
21,VTLG,≤ 0.2
22,ALGW,≤ 0.2
23,LCMK,≤ 0.2
24,RCYM,0.369

row,Variant,one-hybrid fitness for binding parS DNA
1,SMHF,≤ 0.2
2,HAQV,≤ 0.2
3,SVGI,≤ 0.2
4,YRKC,0.388
5,FIMT,≤ 0.2
6,LWQL,≤ 0.2
7,PVMC,≤ 0.2
8,DPTT,≤ 0.2
9,KHRN,≤ 0.2
10,ILSP,≤ 0.2
11,GEAK,≤ 0.2
12,ASRK,≤ 0.2
13,PMGP,≤ 0.2
14,GHWS,≤ 0.2
15,VANI,≤ 0.2
16,HRLL,≤ 0.2
17,EHAR,≤ 0.2
18,HDGM,≤ 0.2
19,QYDC,≤ 0.2
20,LVTF,≤ 0.2
21,QSHR,≤ 0.2
22,AHEF,≤ 0.2
23,SLSH,≤ 0.2
24,HCNS,≤ 0.2

row,Variant,one-hybrid fitness for binding parS DNA
1,THEL,≤ 0.2
2,HNSR,≤ 0.2
3,RDMC,≤ 0.2
4,GVPN,≤ 0.2
5,KVGC,≤ 0.2
6,QSFS,≤ 0.2
7,QQNI,≤ 0.2
8,PFAS,≤ 0.2
9,RCSN,0.44
10,QICG,≤ 0.2
11,PLLQ,≤ 0.2
12,APER,≤ 0.2
13,DFPT,≤ 0.2
14,YCHY,≤ 0.2
15,LETY,≤ 0.2
16,KSLK,≤ 0.2
17,RCHD,≤ 0.2
18,VCCS,≤ 0.2
19,IGVS,≤ 0.2
20,LFGS,≤ 0.2
21,RERG,0.388
22,VNDE,≤ 0.2
23,LYMS,≤ 0.2
24,LQYC,≤ 0.2

row,Variant,one-hybrid fitness for binding parS DNA
1,QAFN,≤ 0.2
2,ASGC,≤ 0.2
3,FTFG,≤ 0.2
4,SWNG,≤ 0.2
5,AELL,≤ 0.2
6,SAPG,≤ 0.2
7,PHML,≤ 0.2
8,MREW,≤ 0.2
9,IDNC,≤ 0.2
10,HDFR,≤ 0.2
11,LTVD,≤ 0.2
12,LVDW,≤ 0.2
13,NHSK,≤ 0.2
14,PCHG,≤ 0.2
15,RIDE,≤ 0.2
16,YTTL,≤ 0.2
17,GLNL,≤ 0.2
18,WRTY,≤ 0.2
19,RLWQ,≤ 0.2
20,HMTL,≤ 0.2
21,DQPL,≤ 0.2
22,EPPL,≤ 0.2
23,AMYH,≤ 0.2
24,WGLA,≤ 0.2

row,Variant,one-hybrid fitness for binding parS DNA
1,SNVE,≤ 0.2
2,HFNI,≤ 0.2
3,YIDK,0.28
4,QHCC,≤ 0.2
5,HYIT,≤ 0.2
6,CLGT,≤ 0.2
7,DLRS,≤ 0.2
8,RKFE,≤ 0.2
9,SVIE,≤ 0.2
10,KGNS,≤ 0.2
11,SIGF,≤ 0.2
12,RDTL,≤ 0.2
13,IEAC,≤ 0.2
14,WRVL,≤ 0.2
15,GEGG,≤ 0.2
16,PEIP,≤ 0.2
17,VGAV,≤ 0.2
18,HTNT,≤ 0.2
19,YSKG,≤ 0.2
20,AWCT,≤ 0.2
21,TATS,≤ 0.2
22,TPAD,≤ 0.2
23,MQTD,≤ 0.2
24,CPLV,≤ 0.2

row,Variant,one-hybrid fitness for binding parS DNA
1,RLIM,0.268
2,WVTD,≤ 0.2
3,PGIY,≤ 0.2
4,TWDL,≤ 0.2
5,RMNR,≤ 0.2
6,SNAR,≤ 0.2
7,MDCS,≤ 0.2
8,LFVS,≤ 0.2
9,QDHY,≤ 0.2
10,KRTY,≤ 0.2
11,DCTG,≤ 0.2
12,HVSV,≤ 0.2
13,VPVL,≤ 0.2
14,MCSC,≤ 0.2
15,TPET,≤ 0.2
16,VWQS,≤ 0.2
17,SSVE,≤ 0.2
18,LLTY,≤ 0.2
19,VSPF,≤ 0.2
20,YKIK,≤ 0.2
21,NGIW,≤ 0.2
22,RLLL,≤ 0.2
23,EIGC,≤ 0.2
24,SANC,≤ 0.2

row,Variant,one-hybrid fitness for binding parS DNA
1,FWCS,≤ 0.2
2,RQKA,0.701
3,GGIT,≤ 0.2
4,EDAY,≤ 0.2
5,WPYE,≤ 0.2
6,PEPG,≤ 0.2
7,HMRI,≤ 0.2
8,TIAS,≤ 0.2
9,ICVG,≤ 0.2
10,HYPY,≤ 0.2
11,GIIS,≤ 0.2
12,YTEC,≤ 0.2
13,QDRA,≤ 0.2
14,TAPT,≤ 0.2
15,GSAD,≤ 0.2
16,TSER,≤ 0.2
17,TLHM,≤ 0.2
18,CTNW,≤ 0.2
19,FRTF,≤ 0.2
20,SGDG,≤ 0.2
21,KFVM,≤ 0.2
22,LIPR,≤ 0.2
23,YASD,≤ 0.2
24,SLRV,≤ 0.2

row,Variant,one-hybrid fitness for binding parS DNA
1,CTIG,≤ 0.2
2,RHHR,≤ 0.2
3,CNDS,≤ 0.2
4,CRVC,≤ 0.2
5,FTSV,≤ 0.2
6,VANV,≤ 0.2
7,GPLV,≤ 0.2
8,VSMT,≤ 0.2
9,DIMS,≤ 0.2
10,HIVG,≤ 0.2
11,TPIA,≤ 0.2
12,KRYE,≤ 0.2
13,NNLG,≤ 0.2
14,PTAC,≤ 0.2
15,MHKT,≤ 0.2
16,FSTF,≤ 0.2
17,WRMA,≤ 0.2
18,FQGR,≤ 0.2
19,IMQR,≤ 0.2
20,GCRV,≤ 0.2
21,AARG,≤ 0.2
22,PAAH,≤ 0.2
23,VATF,≤ 0.2
24,QQGI,≤ 0.2

row,Variant,one-hybrid fitness for binding parS DNA
1,HITG,≤ 0.2
2,CKQS,≤ 0.2
3,RRKW,≤ 0.2
4,RVDM,0.258
5,ECHS,≤ 0.2
6,TIKN,≤ 0.2
7,TCTT,≤ 0.2
8,MIRF,≤ 0.2
9,TYMR,≤ 0.2
10,FGLV,≤ 0.2
11,KLAM,≤ 0.2
12,RFFL,≤ 0.2
13,AGSN,≤ 0.2
14,YQVG,≤ 0.2
15,AIGR,≤ 0.2
16,RWYP,≤ 0.2
17,NTRG,≤ 0.2
18,YEAG,≤ 0.2
19,IAGT,≤ 0.2
20,RDTP,≤ 0.2
21,QPLL,≤ 0.2
22,TTFM,≤ 0.2
23,GFTT,≤ 0.2
24,EACS,≤ 0.2

row,Variant,one-hybrid fitness for binding parS DNA
1,HIII,≤ 0.2
2,FMLR,≤ 0.2
3,PDIW,≤ 0.2
4,PWSM,≤ 0.2
5,MESG,≤ 0.2
6,PPPW,≤ 0.2
7,DWKG,≤ 0.2
8,YWCR,≤ 0.2
9,MVLT,≤ 0.2
10,NKYQ,≤ 0.2
11,HDDF,≤ 0.2
12,RHDI,≤ 0.2
13,WVHS,≤ 0.2
14,KRSI,≤ 0.2
15,RIGH,0.246
16,FLRL,≤ 0.2
17,VTRE,≤ 0.2
18,HCDK,≤ 0.2
19,RCYW,0.314
20,MQTG,≤ 0.2
21,KHKT,≤ 0.2
22,VKQH,≤ 0.2
23,IYLD,≤ 0.2
24,NRQA,≤ 0.2

row,Variant,one-hybrid fitness for binding parS DNA
1,LRQH,≤ 0.2
2,HTKW,≤ 0.2
3,SVCS,≤ 0.2
4,NTNA,≤ 0.2
5,GARA,≤ 0.2
6,LKNS,≤ 0.2
7,FTHP,≤ 0.2
8,PFWS,≤ 0.2
9,PTSI,≤ 0.2
10,THYG,≤ 0.2
11,GHTL,≤ 0.2
12,WLMC,≤ 0.2
13,RYCR,≤ 0.2
14,YTKY,≤ 0.2
15,DAPG,≤ 0.2
16,DYPW,≤ 0.2
17,RKFP,≤ 0.2
18,IFNL,≤ 0.2
19,AGSC,≤ 0.2
20,QMNH,≤ 0.2
21,HPIM,≤ 0.2
22,RERL,≤ 0.2
23,QCNR,≤ 0.2
24,NPRQ,≤ 0.2

row,Variant,one-hybrid fitness for binding parS DNA
1,MRLT,≤ 0.2
2,RKYR,≤ 0.2
3,PAFV,≤ 0.2
4,AVIT,≤ 0.2
5,DSDG,≤ 0.2
6,VLGR,≤ 0.2
7,WSYF,≤ 0.2
8,TNGG,≤ 0.2
9,YDIG,≤ 0.2
10,MTMG,≤ 0.2
11,QRDQ,≤ 0.2
12,TSCS,≤ 0.2
13,QKDE,≤ 0.2
14,ETQS,≤ 0.2
15,EHWS,≤ 0.2
16,CCNG,≤ 0.2
17,QYPS,≤ 0.2
18,KNRT,≤ 0.2
19,RYGW,≤ 0.2
20,DWGT,≤ 0.2
21,VRHE,≤ 0.2
22,PYCM,≤ 0.2
23,ITEW,≤ 0.2
24,NTWK,≤ 0.2

row,Variant,one-hybrid fitness for binding parS DNA
1,YSKI,≤ 0.2
2,TSLR,≤ 0.2
3,HRTA,≤ 0.2
4,YHRS,≤ 0.2
5,QNSC,≤ 0.2
6,CFYT,≤ 0.2
7,PQCP,≤ 0.2
8,RFLN,0.415
9,CGQC,≤ 0.2
10,RTKS,0.815
11,QYFN,≤ 0.2
12,RPDW,≤ 0.2
13,HALM,≤ 0.2
14,GQCG,≤ 0.2
15,HDSC,≤ 0.2
16,AIRP,≤ 0.2
17,AVDS,≤ 0.2
18,GLWQ,≤ 0.2
